# Laboratory results as given in PubChem BioAssay AID2147 (National Center for Advancing Translational Sciences (NCATS), 2009).
# Values joined by “and” are separate entries in the source; they are usually repeats but may differ in a detail not shown here. Equal values may be shown once. The campaign covered roughly 230,000 compounds. About 3,600 (1.6%) were called active. This list was built around the results that the source calls inconclusive (neither active nor inactive); the mix of calls is not that of the screen. Calls follow the shape of the dose curve; as a rule, active = well fitted inhibition curve with a large enough effect (not every such curve was filed as active); inconclusive = small, poorly fitted or top-dose-only effect, or another doubt; inactive = no such curve, though single readings can be large or run the other way. Potencies of inconclusive entries are doubtful fits and often do not repeat.
# Molecular target: Lysine-specific demethylase 4E (Homo sapiens) (UniProt B2RXH2)
# Assay: qHTS Assay for Inhibitors of Human Jumonji Domain Containing 2E (JMJD2E)
# Conditions: JMJD2E catalytic domain, FDH-coupled NADH fluorescence (FDH is formaldehyde dehydrogenase); series mostly up to 57.1 µM; activity change, negative = inhibition: at the top concentration
# Also: nearly all actives have a fitted effect of over 50% in size.
# 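For activity change, negative = inhibition in this document: 0% = wells with enzyme and -100% = buffer wells without enzyme.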
# Potency is read from the fitted curve at half-maximal effect; tags tell the direction and shape of the fitted curve.
# Sequence of UniProt B2RXH2 (B2RXH2 whole entry, looked up, the tested form may be a part): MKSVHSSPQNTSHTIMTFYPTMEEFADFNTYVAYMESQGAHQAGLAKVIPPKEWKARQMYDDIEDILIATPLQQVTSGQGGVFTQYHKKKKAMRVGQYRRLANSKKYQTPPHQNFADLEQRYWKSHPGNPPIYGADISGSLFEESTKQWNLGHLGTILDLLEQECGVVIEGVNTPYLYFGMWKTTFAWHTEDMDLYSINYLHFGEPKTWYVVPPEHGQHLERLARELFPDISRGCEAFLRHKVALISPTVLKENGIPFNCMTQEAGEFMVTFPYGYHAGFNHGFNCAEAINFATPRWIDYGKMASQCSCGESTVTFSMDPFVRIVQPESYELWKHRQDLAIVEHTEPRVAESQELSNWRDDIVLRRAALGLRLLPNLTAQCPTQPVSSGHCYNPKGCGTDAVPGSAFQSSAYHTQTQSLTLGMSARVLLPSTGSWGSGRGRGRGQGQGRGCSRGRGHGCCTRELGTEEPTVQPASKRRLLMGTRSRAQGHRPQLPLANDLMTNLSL
Structure (SMILES),Potency,"activity change, negative = inhibition"
O=c1[nH]c2cc3c(cc2cc1CN(CCc1ccccc1)Cc1nnnn1C1CCCC1)OCCO3,"inconclusive: 17.8 µM [inhibitor, partial curve]",–
Cc1cccc2c1nc(-c1ccccc1)n1nnnc21,"inconclusive: 39.8 µM [inhibitor, single point]",–
CC(C)(C)C(=O)NC(C(N)=O)=C(Cl)Cl,–,inactive: 1.91%
Cc1ccc(S(=O)(=O)N(C)C)cc1NC(=S)N1CCN(Cc2ccc3c(c2)OCO3)CC1,–,inactive: -8.57%
O=C1CC(SCc2nc3ccccc3[nH]2)C(=O)N1c1ccc(F)c(Cl)c1 (stereo unspecified),"inconclusive: 31.6 µM [inhibitor, single point]",–
Cc1cccc(N(CC(=O)N/N=C/c2cc([N+](=O)[O-])ccc2Cl)S(C)(=O)=O)c1C,–,inactive: 1.79%
O=c1c2ccccc2nnn1Cc1cccc2ccccc12,–,inactive: -14.8%
Cn1c(SCC(=O)N2CCCC2)nnc1-c1cnccn1,"inconclusive: 35.5 µM [inhibitor, single point]",–
CC1=C/C(=C\c2ccc3c(c2)OCO3)C(=O)S1,–,inactive: -23.7%
CC(C(=O)O)n1cnc2sc3c(c2c1=O)CCCC3 (stereo unspecified),"inconclusive: 1.58 µM [inhibitor, full curve, poor fit]",–
Cc1cccc(N2CCN(C(=O)Cn3cccc3)CC2)c1C,"inconclusive: 39.8 µM [inhibitor, single point]",–
Cc1ccc(N2C(=O)C3C4C=CC(CNC(=S)Nc5ccc(Cl)cc5)(O4)C3C2=O)cc1 (stereo unspecified),–,inactive: 2.6%
Cc1ccc(-c2nc(NCc3ccco3)n(C(=O)c3ccco3)n2)cc1,"inconclusive: 39.8 µM [inhibitor, single point]",–
CCCCCCOC(=O)C[N+](C)(C)CCOC1CC2CCC1(C)C2(C)C (stereo unspecified),"inconclusive: 25.1 µM [inhibitor, single point]",–
CC(=O)N1CCN(c2ccc(Oc3ncnc4sccc34)cc2)CC1,–,inactive: 6.5%
COC(=O)c1ccccc1NC(=O)c1nc2nc(C)cc(C)n2n1,–,inactive: 0.0322%
CCOc1ccc2cc(C3CC(c4ccco4)=NN3S(=O)(=O)c3ccccc3)c(Cl)nc2c1 (stereo unspecified),"inconclusive: 22.4 µM [inhibitor, partial curve]",–
CN1CCC2(CC1)N=C(c1ccc(F)cc1)C(=S)N2C(=O)c1ccccc1,"inconclusive: 39.8 µM [inhibitor, single point]",–
CCCCn1c(NCc2cccs2)nc2ccccc21,–,inactive: 1.41%
COc1ccc(NC(=O)c2cn(CCC#N)nc2-c2cccs2)cc1,–,inactive: 8.57%
O=C(Nc1nc(-c2cc(Cl)sc2Cl)cs1)c1ccccc1,"inconclusive: 35.5 µM [inhibitor, single point]",–
O=c1c(O)c(-c2cccs2)oc2ccc(Cl)cc12,"inconclusive: 35.5 µM [inhibitor, single point]",–
CCOc1ccc(CCNC(=O)CCS(=O)(=O)c2ccc(OC)cc2)cc1OCC,–,inactive: 3.84%
Cc1cc(N2CCN(c3ccccc3Cl)CC2)n2cc(-c3ccccc3)nc2n1,"inconclusive: 31.6 µM [inhibitor, partial curve]",–

Structure (SMILES),Potency,"activity change, negative = inhibition"
C=CCOc1ccc(/C=C/C(=O)Nc2ccc(C(=O)NC)cc2)cc1,"inconclusive: 22.4 µM [inhibitor, partial curve]",–
Cc1cccc(C)c1NC(=O)Cn1nnc(-c2ccc(N3CCOCC3)cc2)n1,"inconclusive: 8.91 µM [inhibitor, full curve, poor fit]",–
COc1ccc(S(=O)(=O)n2oc(=O)cc2-c2ccccc2)cc1OC,"inconclusive: 35.5 µM [inhibitor, single point]",–
CCN(CC)CC#CC(O)(c1ccccc1)c1ccccc1,–,inactive: -6.27%
CCSc1nnc(NC(=O)C2CC=CCC2C(=O)O)s1 (stereo unspecified),–,inactive: 1.05%
COc1ccc(Cn2c(C3CC3)nc3ccc(NC(C)=O)cc3c2=O)cc1,"inconclusive: 39.8 µM [inhibitor, single point]",–
CC(=O)N1N=C(c2ccc3ccccc3c2)OC12CCCC2,"inconclusive: 31.6 µM [inhibitor, partial curve]",–
COc1cccc(/C=N/NC(=O)CNC(=O)c2cccs2)c1O,active: 8.91 µM,–
CCOc1nc2ccccc2nc1NS(=O)(=O)c1ccccc1,"inconclusive: 39.8 µM [inhibitor, single point]",–
N#Cc1c(NC(=S)NC(=O)c2ccccc2)sc2c1CCCC2,–,inactive: 5.67%
CCOc1cc(CNc2ccc(N(C)C)cc2)cc(Br)c1OCC(=O)NC(C)(C)C,"inconclusive: 1.26 µM [inhibitor, full curve, poor fit]",–
Cc1cccc(NC(=O)COC(=O)c2ccc3c(=O)n4c(nc3c2)CCC4)c1,"inconclusive: 39.8 µM [inhibitor, single point]",–
CC(C)c1ccc(S(=O)(=O)N2CCCCC2)cc1,–,inactive: 0.906%
CC1Cc2ccccc2N1C(=O)c1cc2c(=O)n3ccccc3nc2n1C (stereo unspecified),"inconclusive: 22.4 µM [inhibitor, single point]",–
COC(=O)c1c(NC(=O)CN2CCN(c3ccccc3OC)CC2)c2cc(C)ccc2n1C,"inconclusive: 8.91 µM [inhibitor, single point]",–
C/C(=N\Nc1ccc(S(N)(=O)=O)cc1[N+](=O)[O-])c1ccccc1O,–,inactive: -0.216%
N#Cc1c(NC(=O)c2ccncc2)sc2c1CCC2,"inconclusive: 31.6 µM [inhibitor, single point]",–
O=C(Nc1cccc(Cl)c1)Nc1ccccc1C(=O)O,"inconclusive: 31.6 µM [inhibitor, partial curve]",–
COc1ccc(COc2cc(-c3cccc(OC)c3)nc3ccc(NC(=O)c4cccnc4)cc23)cc1,"inconclusive: 31.6 µM [inhibitor, single point]",–
CC1=CC(c2ccc(Cl)cc2)n2nc(N3C(=O)CCC3=O)nc2N1 (stereo unspecified),"inconclusive: 28.2 µM [inhibitor, partial curve]",–
COc1cc(/C=N/NC(=O)c2sc3ccccc3c2Cl)ccc1OC(=O)c1ccc([N+](=O)[O-])cc1,–,inactive: 4.34%
O=[N+]([O-])c1cccc(/C([O-])=C(/C(=S)Nc2cccc3ccccc23)[n+]2ccccc2)c1,–,inactive: -2.42%
CC1(C)Cc2c(C#N)c(SCC(=O)c3ccccc3)nc(N3CCOCC3)c2CS1,"inconclusive: 25.1 µM [inhibitor, partial curve]",–
COc1ccc(NC(=O)COC(=O)c2ccc(Cl)c(S(N)(=O)=O)c2)c([N+](=O)[O-])c1,–,inactive: 11.9%

Structure (SMILES),Potency,"activity change, negative = inhibition"
CN(C)CCN(C(=O)/C=C/c1cccs1)c1nc2c(F)cc(F)cc2s1,"inconclusive: 31.6 µM [inhibitor, single point]",–
CC(C)(C)c1ccc(C(=O)Nc2ccc(CN3CCS(=O)(=O)CC3)cc2)cc1,"inconclusive: 20 µM [inhibitor, partial curve]",–
Cc1ccc2[nH]c(=O)c(CN(CC3CCCO3)S(=O)(=O)c3cccc4nsnc34)cc2c1 (stereo unspecified),–,inactive: 4.92%
O=c1[nH]c2ccccc2c2ccccc12,"inconclusive: 39.8 µM [inhibitor, single point] and inconclusive: 28.2 µM [inhibitor, single point]",–
O=C(COC(=O)c1ccc(Br)o1)Nc1cccc(S(=O)(=O)N2CCCCCC2)c1,–,inactive: -3.63%
COC(=O)[C@]1(C)CCC[C@]2(C)c3ccc(C(C)C)cc3C(=O)CC12 (stereo partly specified),–,inactive: -11.2%
COC(=O)c1c(N)c2ccccc2[nH]c1=O,"inconclusive: 22.4 µM [inhibitor, partial curve]",–
CCCOc1ccc(C(=O)NC(=S)NNC(=O)c2c(-c3ccccc3)noc2C)cc1,active: 11.2 µM,–
CCCCCc1cc(=O)oc2c(C(CCN3CCCC(C)C3)c3ccc(OC)cc3)c(OC)cc(OC)c12 (stereo unspecified),"inconclusive: 22.4 µM [inhibitor, partial curve]",–
Cc1cc(=O)c2cc(C(=O)c3ccccc3)ccc2[nH]1,–,inactive: 3.32%
CCOC(=O)c1cc(CC)sc1NC(=O)c1cc(OCC)c(OCC)c(OCC)c1,"inconclusive: 3.98 µM [inhibitor, full curve]",–
Cc1ccc(OCC(=O)c2ccc3c(c2)CCCC3)cc1C,–,inactive: 3.15%
O=C(CCn1c(=O)oc2ccccc21)Nc1ccccc1,–,inactive: -6.21%
FC(F)(F)c1ccc(-c2csc(-c3ccno3)n2)cc1,"inconclusive: 25.1 µM [inhibitor, single point]",–
COc1ccc2[nH]c(=O)c(CN(C(=O)c3cccnc3)c3ccccc3)cc2c1,"inconclusive: 28.2 µM [inhibitor, partial curve]",–
CCOC(=O)c1c(-c2ccccc2)[nH]c2ccc(O)cc12,"inconclusive: 31.6 µM [inhibitor, partial curve]",–
C/C(=N/NC(=O)c1cc(-c2ccc(Br)s2)[nH]n1)c1ccco1,"inconclusive: 39.8 µM [inhibitor, single point]",–
COc1ccc2oc(C(F)(F)C(F)F)cc(=O)c2c1,"inconclusive: 31.6 µM [inhibitor, partial curve]",–
C#CCOCCOCCOCCNc1nc(N2CCN(C(=O)[C@H]([C@@H](C)CC)n3cc(CCCN=C(N)N)nn3)CC2)nc(N2CCN(C(=O)[C@H](Cc3ccc(O)cc3)n3cc(CCO)nn3)CC2)n1,"inconclusive: 25.1 µM [inhibitor, single point]",–
COc1ccc(CNC(=O)CSc2nnc(-c3ccc(NC(C)=O)cc3)n2C)cc1,–,inactive: 7.74%
CCOC(=O)c1c(NC(=O)C2C3C=CC(C3)C2C(=O)O)sc2c1CCC(C)C2 (stereo unspecified),"inconclusive: 31.6 µM [inhibitor, single point]",–
CCCCCOCC1CC(C/C(C)=N/Nc2nc(-c3ccccc3)cs2)C(=O)O1 (stereo unspecified),–,inactive: -0.157%
Cc1ccc(NC(=O)CN2C(=O)S/C(=C\c3cc(C)n(-c4ccc(C(=O)O)cc4)c3C)C2=O)cc1,"inconclusive: 39.8 µM [inhibitor, single point]",–
